Data: PubChem BioAssay AID757 (NMMLSC, 2007)
The whole screen tested about 190,000 compounds, of which about 520 (0.27%) were called active. Inconclusive means that the source gave no clear call. Such entries were picked first, then a sample of the others.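 How the source made its calls: active means GTP binding activity at least 20 points away from the 100% control level, either lower or higher; inconclusive means compound flagged as likely green fluorescent, judged across all proteins; inactive means the rest.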

molecular target: Ras-related C3 botulinum toxin substrate 1 (Homo sapiens) (UniProt P63000); assay: wildtype Rac1 GTP binding modulators, primary screen, biochemical, GST-Rac1 beads, flow cytometry, multiplex (AID 757); settings: fluorescent GTP binding, at 10 µM, actives lie on both sides, 0 = cold GTP competed, 100 = untreated

SMILES | GTP binding activity (% of control)
Cc1ccc(S(=O)(=O)NCCCCCC(=O)Nc2c(C)n(C)n(-c3ccccc3)c2=O)cc1 | inactive: 99%
COc1ccccc1NC(=S)N(Cc1ccco1)Cc1cc2cc(C)ccc2[nH]c1=O | inactive: 97%
COc1ccc(C(=O)Nc2ccc(S(=O)(=O)N3CCCCC3)cc2)cc1OC | inconclusive: 97%
Cn1cccc1/C=C1\SC(=S)N(NC(=O)c2ccccc2)C1=O | inconclusive: 90%
CCn1c(=N)c(S(=O)(=O)c2ccccc2)cc2c(=O)n3ccccc3nc21 | inactive: 87%
Cc1nn(-c2ccc(F)cc2)c(Cl)c1/C=C(\CC(=O)O)c1nc2ccccc2s1 | inconclusive: 79%
CN=C(Nc1cccc(OC)c1)SC1CC(=O)N(c2ccc(C(=O)O)cc2)C1=O (stereo not drawn) | inactive: 101%
CCn1c2ccccc2c2cc(/C=N/O)ccc21 | inconclusive: 92%
O=[N+]([O-])c1ccccc1Oc1ncccc1[N+](=O)[O-] | inconclusive: 92%
COc1ccc(S(=O)(=O)N2CCC3(CC2)OCCO3)cc1 | inactive: 99%
COc1cc(C(C)=O)ccc1OCC(=O)NCC1(N2CCCCC2)CCCCC1 | inactive: 101%
N#Cc1ccc(-c2ccc(F)cc2)nc1Sc1ccc(F)cc1 | inconclusive: 105%
Cc1ccc(NC(=O)c2cc(-c3ccccc3)nn2-c2ccccc2)cc1 | inconclusive: 101%
O=C(/C=C/c1ccco1)NCC(=O)N/N=C/c1ccc(Cl)cc1 | inconclusive: 92%
N#C/C(=C/c1ccc(-c2cc(C(=O)O)cc(C(=O)O)c2)o1)c1nc2ccccc2s1 | active: 70%
Cc1ccc(S(=O)(=O)Nc2ccc(Br)cc2C(NCC(=O)O)c2ccccc2)cc1 (stereo not drawn) | inconclusive: 91%
Oc1ccc(Br)cc1C=Nc1ccc(Cl)cc1 | inconclusive: 90%
O=C(Cc1cccc2ccccc12)Nc1ccc(N2CCOCC2)cc1 | inactive: 103%
CC(=O)c1sc(NC(=O)c2ccc(C)c(C)c2)nc1C | inconclusive: 92%
COc1ccc(C(=O)N/C(=C\c2cccc([N+](=O)[O-])c2)C(=O)Nc2cccc(C(=O)O)c2)cc1 | active: 64%
Clc1ccc(CNc2ccc3nnc(-c4ccccc4)n3n2)cc1 | inactive: 98%
Cc1cc(C(F)(F)F)nc(SCC(=O)NC2=NC(=O)C(C)S2)n1 (stereo not drawn) | inconclusive: 103%
COc1cccc(CC2(CO)CCCN(Cc3ccc(CN4CCCCC4)s3)C2)c1 (stereo not drawn) | inactive: 102%
COc1ccc(CCNC(=O)CCNS(=O)(=O)c2cccc(Cl)c2)cc1OC | inactive: 97%

SMILES | GTP binding activity (% of control)
Cc1cc(OC(=O)c2ccccc2)n(CCC#N)n1 | inconclusive: 104%
Cc1cc(C(=O)CCl)c(C)n1-c1cccc(S(=O)(=O)N2CCOCC2)c1 | inactive: 94%
Cc1ccc(OCC(=O)N2CCN(C(=O)c3ccncc3)CC2)cc1 | inactive: 101%
O=C(Nc1nc(-c2ccc(S(=O)(=O)N3CCCC3)cc2)cs1)c1ccco1 | inconclusive: 83%
Oc1ccccc1N=Nc1ccccc1O | inconclusive: 92%
Cc1cccc(NC(=S)NNC(=O)c2ccc3c(c2)OCO3)c1 | inconclusive: 100%
CCOC(=O)c1c(C)[nH]c(C(=O)CC(=O)OC)c1C | inactive: 90%
O=C(O)c1ccc(Cn2c(SCc3cc(=O)n4cc(Br)ccc4n3)nc3ccsc3c2=O)cc1 | inconclusive: 94%
CCc1nnc(NS(=O)(=O)c2ccc(Nc3ccc4nonc4c3[N+](=O)[O-])cc2)s1 | active: 77%
COCCNC(=S)NCCCNc1nc2cc3c(cc2cc1C#N)OCO3 | inconclusive: 94%
Cc1ccc(Cn2cc(/C=C/C(=O)O)c(-c3ccccc3)n2)cc1 | inconclusive: 102%
CC(C)(C)C(=O)NC(=S)NCc1ccccc1 | inconclusive: 105%
CCC(CC)COC(=O)C(C#N)c1nc2ccccc2nc1N1CCOCC1 (stereo not drawn) | inconclusive: 106%
Cc1ccsc1/C=C(\C(=O)c1ccc(OC(C)C)cc1)c1nc2ccccc2o1 | inactive: 107%
COCCn1c(C)cc(C(=O)COC(=O)/C=C/c2cccc(OC)c2)c1C | inconclusive: 92%
COc1ccc2c(c1)nc(SCC(C)O)n2C (stereo not drawn) | inconclusive: 107%
COC(=O)c1sccc1-n1cccc1C(=O)C(=O)N1CCOCC1 | inactive: 95%
O=C(Nc1ccc(Cl)c(Cl)c1)Nc1nnc(CSc2ccccc2)s1 | inactive: 106%
C=CCn1c(N)c(C(=O)OCC)sc1=S | inconclusive: 107%
Cc1ccccc1CN1CCN(C(=O)c2cccc(F)c2)CC1 | inconclusive: 108%
O=C(CSCc1ccccc1)N=Nc1c(O)[nH]c2ccccc12 | inconclusive: 101%
CC(=O)N=c1n(C)c2ccccc2n1CCOc1ccccc1 | inactive: 102%
C/C(=N\NC(=O)c1ccc(Cl)cc1)c1cccc(NC(=O)C(C)C)c1 | inconclusive: 104%
O=C(CN1C(=O)C2C3C=CC(C3)C2C1=O)NCCc1ccccc1Cl (stereo not drawn) | inconclusive: 106%

SMILES | GTP binding activity (% of control)
CC1(C)CC(=O)C/C(=N\NC(=O)C2CC23CCC3)C1 (stereo not drawn) | inactive: 98%
CSc1nc2c(c(=O)[nH]1)C(c1ccncc1)C(C(=O)OC(C)C)=C(C)N2 (stereo not drawn) | inconclusive: 105%
CCN(CC)CCNC(=O)c1ccc(Sc2ccc(C)cc2)c(NC(C)=O)c1 | inactive: 100%
Cc1cccc(NS(=O)(=O)c2cc(C(=O)N3CCOCC3)ccc2Cl)c1 | inactive: 102%
CCOC(=O)c1cccc(NC(=O)CCS(=O)(=O)c2ccc(Br)s2)c1 | inconclusive: 104%
Cc1cc(C)n2c(SCc3nnc(-c4cccs4)o3)nnc2n1 | inconclusive: 92%
CCCCCN1C(=O)Cn2c(nc3ccccc3c2=O)C1C (stereo not drawn) | inactive: 94%
CCOC(=O)c1ccc(S(=O)(=O)NC2CCCCCCC2)n1C | inconclusive: 88%
C=CCSc1nc(N)c(C#N)c(-c2ccc(C)cc2)c1C#N | active: 78%
NC(=O)c1c(NC(=O)c2ccncc2)sc2c1CCCC2 | inactive: 87%
COCCN1C(=O)/C(=C/c2ccc(N3CCCC3)cc2)SC1=S | inconclusive: 113%
O=C(N/N=C/c1cccnc1)c1ccc2c(c1)OCCO2 | inactive: 102%
CNc1nc(-c2ccccn2)nnc1-c1ccccc1 | inconclusive: 106%
COc1cccc(OCC(=O)O/N=C(\N)c2ccc(OC)c(OC)c2)c1 | inconclusive: 93%
CCc1nnc(NS(=O)(=O)c2ccc(N=Cc3c(C)[nH]n(-c4cccc(Cl)c4)c3=O)cc2)s1 | inconclusive: 93%
Cc1cc(N/N=C/c2ccc(O)cc2O)nc(-n2nc(C)cc2C)n1 | inconclusive: 71%
NC(N)=NC1=NC(=O)/C(=C/c2ccccc2-n2cccn2)S1 | inconclusive: 94%
C=CCOc1ccc(/C=N/NC(=O)C(C)Sc2ccccn2)cc1OC (stereo not drawn) | inconclusive: 99%
N#C/C(=C/c1ccc(N2CCCCC2)o1)C(=O)Nc1ccc(Cl)cc1 | inconclusive: 105%
CC(C)CC(=O)O/N=C1\C(=O)N(Cc2ccc(Cl)cc2)c2ccc([N+](=O)[O-])cc21 | inactive: 98%
COc1ccc(OCC(=O)Nc2cccc(NC(=O)COc3ccc(OC)cc3)n2)cc1 | inconclusive: 95%
Cc1cc(C)nc(SCc2csc(-c3ccccc3)n2)n1 | inactive: 105%
O=C(CSc1ccc2ccccc2c1)Nc1ncccn1 | inactive: 101%
S=C(Nc1ccc(Oc2ccc(NC(=S)NC3CCCCC3)cc2)cc1)NC1CCCCC1 | inactive: 106%

SMILES | GTP binding activity (% of control)
Cn1c(C(=O)N2CCN(Cc3ccc4c(c3)OCO4)CC2)cc2c(=O)n(C)c3ccccc3c21 | inconclusive: 91%
COc1cc([C@H]2[C@@H]3CCCC[C@]3(O)CCN2CC(=O)Nc2ccc(C)cc2)ccc1O | inactive: 103%
COc1ccc(/C=C(\C#N)C(=O)NCC2CCCO2)cc1OC (stereo not drawn) | inconclusive: 105%
CC(C)COc1cccc(C(=O)NC(=S)Nc2cccc(NC(=O)c3ccccc3Cl)c2)c1 | inactive: 104%
COc1cc2cc(C)c3nnc(SCC(=O)Nc4cc(C)on4)n3c2cc1OC | inconclusive: 82%
O=C(Nn1cnc2ccccc2c1=O)c1ccccc1[N+](=O)[O-] | inactive: 91%
CCOC(=O)c1c(C=O)c2sc(C)cc2n1C | inactive: 98%
O=C(NCCCN1CCOCC1)c1cc(C(=O)C2CCCCC2)c[nH]1 | inconclusive: 92%
Cc1noc(C)c1COc1cccc(C(=O)NCc2ccccc2Cl)c1 | active: 72%
Cc1cc(N=CC2=C(O)CC(C)(C)CC2=O)no1 | inconclusive: 88%
CCOC(=O)NN1C(=O)c2ccccc2NC1c1ccccc1 (stereo not drawn) | inconclusive: 107%
Cc1ccc(-c2nnc(-c3ccc(NC(=O)c4cccs4)cc3)o2)cc1 | inconclusive: 105%
Cn1c(=O)cc(N2CCOCC2)[nH]c1=O | inconclusive: 295%
CCO[C@@H]1OC(C(=O)N2CCN(Cc3ccccc3)CC2)=C[C@H](c2coc3ccccc3c2=O)[C@H]1CCCO | inactive: 97%
O=C(O)c1ccc2c(=O)[nH]c(CN3CCOCC3)nc2c1 | inconclusive: 110%
COc1ccc2[nH]c(=O)c(CN(Cc3ccc4c(c3)OCO4)C(C)=O)cc2c1 | inconclusive: 89%
CCOC(=O)C1CCCN(C(=O)CCn2nc(-c3ccccc3)ccc2=O)C1 (stereo not drawn) | inconclusive: 105%
O=C(c1ccccc1NS(=O)(=O)c1ccc(F)cc1)N1CCc2ccccc21 | inconclusive: 100%
C=CCSC1=N/C(=C\c2ccc(C(=O)O)cc2)C(=O)S1 | inactive: 99%
O=C(CC1C(=O)NCCN1Cc1ccc(-c2ccccc2)cc1)NCCCn1cccn1 (stereo not drawn) | inconclusive: 94%
COc1cc(NC(=S)Nc2ccc(N(C)C(C)=O)cc2)cc(OC)c1 | inactive: 95%
